From the supplement of paper PMC4967469

Assays:
Assay in all cases: Viability of human cancer cell lines after 72 h of drug (GDSC screen)
LFM-A13 = compound: C/C(O)=C(\C#N)C(=O)Nc1cc(Br)ccc1Br [LFM-A13]; details: top dose 16 µM; top dose inferred
Procedure: (§1)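 Human cancer cell lines in 384-well plates, medium with 10% serum, drug for 72 h over a 256-fold dose range (nine 2-fold or five 4-fold steps up to the top dose). Adherent lines were fixed and stained with the nucleic acid dye Syto60, suspension lines read with resazurin; signal relative to control wells, capped at 0 and 100%. One two-parameter sigmoid per drug and line, fitted in a mixed model over all curves with the slope shared within a line.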

KIN001-270 = compound: Cc1ccc(Nc2cc(-c3cccc(N4C(=O)c5ccccc5C4=O)c3)ncn2)cc1NS(C)(=O)=O [KIN001-270]; details: top dose 20 µM; top dose inferred
Procedure: as §1

AUY922 = compound: CCNC(=O)c1noc(-c2cc(C(C)C)c(O)cc2O)c1-c1ccc(CN2CCOCC2)cc1 [AUY922]; details: top dose 0.256 µM; top dose inferred
Procedure: as §1

MP470 = compound: S=C(NCc1ccc2c(c1)OCO2)N1CCN(c2ncnc3c2oc2ccccc23)CC1 [MP470]; details: top dose 20 µM; top dose inferred
Procedure: as §1

TW-37 = compound: CC(C)c1ccccc1Cc1cc(C(=O)Nc2ccc(S(=O)(=O)c3ccccc3C(C)(C)C)cc2)c(O)c(O)c1O [TW-37]; details: top dose 5 µM
Procedure: as §1

T0901317 = compound: O=S(=O)(c1ccccc1)N(CC(F)(F)F)c1ccc(C(O)(C(F)(F)F)C(F)(F)F)cc1 [T0901317]; details: top dose 10.24 µM; top dose inferred
Procedure: as §1

Bicalutamide = compound: CC(O)(CS(=O)(=O)c1ccc(F)cc1)C(=O)Nc1ccc(C#N)c(C(F)(F)F)c1 [Bicalutamide]; details: top dose inferred
Procedure: as §1

Gemcitabine = compound: Nc1ccn([C@@H]2O[C@H](CO)[C@@H](O)C2(F)F)c(=O)n1 [Gemcitabine]; details: top dose 1.024 µM
Procedure: as §1

[1] = top dose 1.024 µM, screen: GDSC drug entry 150
[2] = top dose 10 µM, screen: GDSC drug entry 1502

Row | Cell Line | AUC (LFM-A13) | IC50 (LFM-A13) [µM] | AUC (KIN001-270) | IC50 (KIN001-270) [µM] | AUC (AUY922) | IC50 (AUY922) [nM] | AUC (MP470) | IC50 (MP470) [µM] | AUC (TW-37) | IC50 (TW-37) [nM] | AUC (T0901317) | IC50 (T0901317) [µM] | AUC (Bicalutamide; [1]) | IC50 (Bicalutamide; [1]) [µM] | AUC (Bicalutamide; [2]) | IC50 (Bicalutamide; [2]) [µM] | AUC (Gemcitabine) | IC50 (Gemcitabine) [nM]
1 | MDA-MB-231 (breast, adherent) | 0.947 | > 16 | 0.984 | > 20 | 0.747 | 86.1 | 0.892 | > 20 | 0.365 | 129 | 0.975 | > 10.2 |  |  |  |  |  | 
2 | MDA-MB-468 (breast, adherent) | 0.981 | > 16 | 0.961 | > 20 | 0.668 | 46 | 0.507 | 1.3 | 0.338 | 113 | 0.971 | > 10.2 | 0.988 | > 1.02 | 0.986 | > 10 |  | 
3 | MEL-HO (melanoma, adherent) |  |  |  |  |  |  |  |  | 0.341 | 112 |  |  |  |  | 0.982 | > 10 |  | 
4 | Mewo (melanoma, adherent) | 0.983 | > 16 | 0.979 | > 20 | 0.962 | > 256 | 0.917 | > 20 | 0.581 | 545 | 0.978 | > 10.2 | 0.984 | > 1.02 | 0.981 | > 10 |  | 
5 | NCI-H460 (large cell lung carcinoma, adherent) | 0.985 | > 16 | 0.98 | > 20 | 0.438 | 11 | 0.554 | 1.73 | 0.52 | 353 | 0.99 | > 10.2 | 0.99 | > 1.02 | 0.983 | > 10 |  | 
6 | NCI-H1650 (lung adenocarcinoma, adherent) |  |  |  |  |  |  |  |  | 0.825 | 4340 |  |  |  |  |  |  |  | 
7 | NCI-H2066 (small cell lung carcinoma, adherent) |  |  |  |  |  |  |  |  | 0.618 | 829 |  |  |  |  | 0.967 | > 10 |  | 
8 | OV-7 (ovary, adherent) |  |  | 0.879 | > 20 |  |  | 0.922 | > 20 | 0.643 | 956 | 0.974 | > 10.2 |  |  | 0.915 | > 10 |  | 
9 | OV-17R (ovary, adherent) |  |  | 0.962 | > 20 |  |  | 0.58 | 2.26 | 0.588 | 599 | 0.975 | > 10.2 |  |  | 0.973 | > 10 |  | 
10 | OVCA433 (ovary, adherent) |  |  | 0.982 | > 20 |  |  | 0.969 | > 20 | 0.593 | 580 | 0.984 | > 10.2 |  |  | 0.983 | > 10 |  | 
11 | PC-3 (prostate, adherent) | 0.976 | > 16 | 0.948 | > 20 |  |  | 0.928 | > 20 | 0.631 | 782 | 0.976 | > 10.2 |  |  |  |  |  | 
12 | RCC-ER (kidney, adherent) |  |  | 0.985 | > 20 |  |  | 0.971 | > 20 | 0.404 | 165 | 0.986 | > 10.2 |  |  | 0.984 | > 10 |  | 
13 | SK-MEL-5 (melanoma, adherent) |  |  | 0.983 | > 20 |  |  | 0.892 | > 20 | 0.575 | 525 | 0.978 | > 10.2 |  |  | 0.978 | > 10 |  | 
14 | SNU-175 (large intestine, suspension) |  |  | 0.977 | > 20 |  |  | 0.434 | 0.834 |  |  | 0.966 | > 10.2 |  |  |  |  |  | 
15 | SNU-1040 (large intestine, adherent) |  |  | 0.969 | > 20 |  |  | 0.913 | > 20 |  |  | 0.962 | > 10.2 |  |  | 0.965 | > 10 |  | 
16 | SU-DHL-10 (B-cell lymphoma, suspension) |  |  | 0.956 | 19.7 |  |  | 0.648 | 2.84 | 0.552 | 416 | 0.983 | > 10.2 |  |  | 0.997 | > 10 |  | 
17 | SW1116 (large intestine, adherent) |  |  | 0.976 | > 20 |  |  | 0.985 | > 20 | 0.886 | > 5000 | 0.986 | > 10.2 |  |  | 0.967 | > 10 |  | 
18 | SW1271 (small cell lung carcinoma, adherent) | 0.958 | > 16 | 0.977 | > 20 |  |  | 0.94 | > 20 | 0.653 | 887 | 0.984 | > 10.2 | 0.983 | > 1.02 | 0.982 | > 10 | 0.325 | 19.2
19 | SW1463 (large intestine, adherent) | 0.973 | > 16 | 0.976 | > 20 | 0.9 | > 256 |  |  | 0.922 | > 5000 |  |  | 0.977 | > 1.02 | 0.953 | > 10 | 0.747 | 566
20 | T-24 (bladder, adherent) | 0.953 | > 16 | 0.978 | > 20 | 0.683 | 50.5 | 0.981 | > 20 | 0.525 | 364 | 0.988 | > 10.2 | 0.988 | > 1.02 | 0.987 | > 10 |  | 
21 | U-2-OS (osteosarcoma, adherent) | 0.963 | > 16 | 0.981 | > 20 | 0.616 | 34.4 | 0.95 | > 20 | 0.568 | 489 |  |  | 0.985 | > 1.02 | 0.982 | > 10 |  | 
22 | UWB1.289 (ovary, adherent) |  |  | 0.956 | > 20 |  |  | 0.967 | > 20 | 0.688 | 1380 | 0.97 | > 10.2 |  |  | 0.976 | > 10 |  | 
23 | YMB-1-E (breast, adherent) |  |  | 0.957 | > 20 |  |  | 0.876 | > 20 |  |  | 0.966 | > 10.2 |  |  |  |  |  | 

Lines with a small IC50 respond at low doses; a limit (>, <) means that the fit lies beyond the doses tested. AUC is the area under the same curve over the 256-fold range up to the top dose, as a fraction: 1 means no effect, lower means more sensitive. For part of these data: The top dose, if marked as inferred, is not printed in the source and was worked back from the curve model. For part of these data: Where an entry number is given, a second screen of the drug exists; the two often differ.
